Assay results as given in the supplement of paper PMC3334620.
Over roughly 33,000 sequences, “E-score (-0.5 to 0.5)” has its median near -0.016; the highest 2% begin near 0.32. The list shows a part of the results.

What follows are sequences tested against T1, Stp1 (UniProt B3LFK1) (assay: PBM E-score (8-mer binding enrichment) (E-score (-0.5 to 0.5)); higher = stronger / more preferred TF binding; most listed sequences are background and not binding sites). Conditions: protein concentration: 200 nM; construct: GST-full length.
T1 sequence: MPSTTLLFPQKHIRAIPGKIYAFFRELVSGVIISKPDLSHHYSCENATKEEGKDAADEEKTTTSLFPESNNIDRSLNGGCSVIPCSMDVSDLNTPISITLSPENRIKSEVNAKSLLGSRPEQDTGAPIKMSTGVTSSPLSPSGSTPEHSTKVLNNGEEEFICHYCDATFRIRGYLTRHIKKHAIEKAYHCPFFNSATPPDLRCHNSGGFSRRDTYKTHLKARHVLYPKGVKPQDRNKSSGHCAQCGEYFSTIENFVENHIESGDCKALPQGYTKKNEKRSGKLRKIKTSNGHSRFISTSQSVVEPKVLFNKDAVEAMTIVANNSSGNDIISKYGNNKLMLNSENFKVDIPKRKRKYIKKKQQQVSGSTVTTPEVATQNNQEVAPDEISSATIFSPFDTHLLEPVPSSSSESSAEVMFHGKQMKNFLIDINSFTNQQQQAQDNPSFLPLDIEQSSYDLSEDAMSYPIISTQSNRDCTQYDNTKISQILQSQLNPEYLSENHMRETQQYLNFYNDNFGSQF
Summary of the method: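 Yeast transcription factors, full-length or as DNA-binding domains, were expressed with a GST tag using PURExpress in vitro transcription/translation. At about 100-200 nM they were applied to universal all-10-mer Agilent arrays, double-stranded by primer extension on fresh or once-stripped slides. Fluorescent anti-GST detected bound protein, and masliner normalised the scans. E-scores for ungapped eight-base words, pooled with reverse complements, came from the Universal PBM Analysis Suite.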

| Sequence | PBM E-score |
| --- | --- |
| ATATAAAA | 0.227 |
| CCGGCACA | 0.106 |
| GTTGTTTA | 0.0594 |
| AGGCCAAC | -0.113 |
| CGAGACAC | -0.142 |
| CAGACCGG | -0.211 |
| GCATGGAC | 0.0237 |
| CTGAATCA | -6e-05 |
| ATAAACGA | 0.294 |
| CAACGACG | 0.155 |
| AGCGTGTG | -0.00716 |
| ACGAAGTC | -0.16 |
| ACACTCAT | 0.123 |
| GCGGCCGC | 0.373 |
| CCCTAATC | -0.233 |
| CATGCCCA | -0.249 |
| ACGAAAGG | 0.0262 |
| ACTCTAGA | -0.0596 |
| ATCTTGGA | -0.00943 |
| GAGATGCA | -0.166 |
| ATGCTGGG | -0.279 |
| GCTCACAC | -0.0506 |
| GGTACGAA | 0.128 |
| AGGCGAAT | 0.172 |
| CAGAGAAA | 0.0637 |

| Sequence | PBM E-score |
| --- | --- |
| ATCGTGTC | 0.0255 |
| AATTTACG | 0.206 |
| ACCAGTCG | -0.013 |
| AAGTCGGC | -0.0738 |
| AAACAATC | 0.132 |
| ACGTGAGG | -0.0422 |
| ATTAATGA | 0.156 |
| ATCAGAGG | -0.046 |
| ATACATGG | -0.176 |
| CAATCCCA | -0.303 |
| CGCTTGAA | 0.189 |
| ATCTTTAA | 0.295 |
| ACTTATAT | 0.154 |
| ACAGGCGT | -0.16 |
| AAGGAGCC | -0.0111 |
| AAACTTTC | 0.0425 |
| AGGGGCGC | 0.232 |
| CAAAGCAG | 0.0482 |
| CAAGATTA | 0.0711 |
| CTTGTCTC | -0.0924 |
| CCATGCTC | -0.257 |
| CTCTGTGC | -0.12 |
| CAAAAGAA | 0.314 |
| AAAGCCCC | -0.112 |
| CGGTGTTC | -0.0565 |

| Sequence | PBM E-score |
| --- | --- |
| AGGAGGAG | -0.251 |
| CTTTGATA | 0.171 |
| ATTGTTTC | 0.159 |
| CCCGAGGA | -0.157 |
| ATGTCAGG | -0.141 |
| CAACTGTA | -0.124 |
| CCACTTCG | -0.0462 |
| AGTACACA | 0.0936 |
| GCTTTCGA | -0.0886 |
| CACCTAAC | -0.0743 |
| CTGGTTTA | 0.0191 |
| TCTCGACA | -0.00032 |
| ATTTGCTC | 0.0345 |
| AGATTGTG | -0.0811 |
| ATTGCTCA | 0.0301 |
| CAATCCGG | -0.0143 |
| CAGCTACC | -0.269 |
| AGAGAAAG | -0.196 |
| GCTGAAGA | -0.231 |
| AACAGCTG | -0.0541 |
| AACTGCAC | 0.0976 |
| TCCCGTAA | -0.0808 |
| CGACGCAG | -0.0856 |
| ACTTCCTC | -0.169 |
| CAGCCCTG | -0.194 |

| Sequence | PBM E-score |
| --- | --- |
| CTGGATTC | -0.106 |
| ATACCTCA | -0.0658 |
| ATTACAAC | -0.0195 |
| TAAAGGTA | -0.123 |
| CTTTGATC | -0.121 |
| CACTAAAG | 0.0173 |
| AAGACAAA | 0.119 |
| CAGCGGAC | -0.123 |
| ACATAGAA | 0.0341 |
| ATTTTCAA | 0.124 |
| CGCAACAG | 0.00887 |
| CCCACTTA | 0.18 |
| CCAGATCG | -0.0382 |
| CGTTCCGC | 0.268 |
| CAAACTAC | -0.132 |
| AGCTGCCA | -0.00458 |
| GCTCCCAC | -0.137 |
| CAGTGAAA | 0.179 |
| ATGTCTGA | -0.119 |
| AAGCTCGA | -0.0885 |
| ACTGTTAC | -0.255 |
| CTAATTCA | 0.0962 |
| CGTACAAG | 0.227 |
| CGCATGTA | 0.0232 |
| ATGTCGTG | -0.134 |

| Sequence | PBM E-score |
| --- | --- |
| AGTTATAA | 0.0453 |
| GGTTTGGA | 0.00126 |
| ACCGCCTA | -0.179 |
| ACAGCACC | -0.019 |
| AGTTATGC | 0.0354 |
| CCATTTTC | 0.121 |
| CATATTAA | 0.109 |
| ACAGCCGG | 0.161 |
| ACCAAGCA | 0.0083 |
| ATACACTC | 0.228 |
| CTCAAGGC | 0.0214 |
| ATGTGCTC | 0.0215 |
| ATCCCATG | -0.207 |
| CAACGTCG | -0.0734 |
| GACGCGGA | 0.136 |
| GTCCTCAA | 0.0371 |
| AATTCTGA | 0.131 |
| CGGGTCCC | -0.319 |
| GTGAGGGA | -0.292 |
| TAAGCACA | 0.267 |
| ATGGAGTA | 0.00168 |
| AGGAGAAC | -0.0809 |
| CGTTGTAC | 0.15 |
| CCGCATAC | 0.237 |
| GGTCAGCA | -0.193 |

| Sequence | PBM E-score |
| --- | --- |
| GCGTATAC | 0.127 |
| ATCCAGCA | 0.0312 |
| ATAGGCCC | -0.349 |
| AAGCAATA | 0.0465 |
| AACGGCTA | 0.372 |
| CTCGTCTA | -0.0419 |
| AAGTACAC | 0.145 |
| GTCCTCAC | 0.169 |
| GGCAGAAA | 0.3 |
| CGCTAGTC | -0.302 |
| GACGAACA | 0.084 |
| ATTCAAGA | 0.111 |
| AGTTGGGG | -0.209 |
| CAAAAGGA | 0.0474 |
| CGCACATA | -0.0825 |
| AGAGAGCT | -0.242 |
| CCAGGCCG | 0.0146 |
| ACTGCTCA | 0.239 |
| AGATTCCG | 0.114 |
| GGTCCTTA | -0.161 |
| GCGGGCCC | -0.0768 |
| ATTCCCAA | -0.0332 |
| CCCTCTTC | -0.308 |
| TGACTCAA | 0.107 |
| ATCCAAAT | 0.058 |

| Sequence | PBM E-score |
| --- | --- |
| ATGGGATA | -0.303 |
| GAAAACCA | 0.135 |
| ATCGCATA | 0.00415 |
| GTTTTTCA | 0.159 |
| ACGAGGAT | -0.102 |
| AGTTCCGC | 0.135 |
| AGCGTCCT | -0.272 |
| CTCCTTAC | -0.0976 |
| ACATTAAC | 0.0825 |
| GTGACAGA | -0.0145 |
| ACTGAACG | 0.0829 |
| ATTGTACA | 0.0359 |
| TTATGCAA | -0.0234 |
| AAGTACGC | -0.00925 |
| ACGCTGGC | -0.0221 |
| AACAGTAC | 0.0276 |
| CTTGAGGC | -0.136 |
| CCGACCCA | -0.0432 |
| CCCCTGCG | -0.279 |
| GACTGTGC | -0.00258 |
| ACGGGCCA | -0.0905 |
| CAAAGGCC | -0.166 |
| CGCCGGCA | 0.0879 |
| GCTGCACA | -0.0488 |
| ACTTGAGG | -0.181 |

| Sequence | PBM E-score |
| --- | --- |
| CAAGGACG | -0.0482 |
| ACCTAACA | 0.0612 |
| AAAAAAAC | 0.0973 |
| ACCCCGTA | 0.0799 |
| GAAACGAC | 0.0801 |
| CCTTTTTC | 0.104 |
| GTAGTTTA | 0.0789 |
| GAATAGCA | -0.0635 |
| GAAATCTA | 0.122 |
| AGCACAGA | 0.0637 |
| AGACTTTA | -0.0614 |
| AGGGAATG | -0.0516 |
| ATGTCTGG | 0.0261 |
| AGAATTCT | 0.211 |
| CCTGTCGC | 0.0227 |
| AGACAGTG | -0.123 |
| AATTGTCC | -0.0384 |
| ACAGTACA | -0.0898 |
| AGATCGGA | -0.143 |
| CCTGATTA | -0.0334 |
| TCGAGCGA | 0.0323 |
| CAAGTATG | 0.115 |
| CCGCACAC | 0.214 |
| CAAATCAA | 0.234 |
| ACACAAAG | 0.131 |

| Sequence | PBM E-score |
| --- | --- |
| ATACACTA | 0.00137 |
| AGCCTCCC | -0.277 |
| CACACTCA | 0.0928 |
| AATAGGGT | -0.15 |
| CCGACGCC | 0.197 |
| CCGACTGA | -0.059 |
| GCCCTCGC | -0.0225 |
| GTGTATAA | -0.0455 |
| ATGTGGCG | 0.322 |
| CCCGGGCC | -0.151 |
| AAAAGCCT | -0.0406 |
| ATAGTCAT | -0.11 |
| ATTCGCGA | -0.0465 |
| CCCCCCCG | -0.397 |
| CCTTTAAC | 0.155 |
| AATCCTTA | -0.0134 |
| ATTCAACA | 0.193 |
| GAAGTCAA | 0.0839 |
| AGCCTTTC | -0.0105 |
